Results published in PubChem BioAssay AID1159614 (National Center for Advancing Translational Sciences (NCATS), 2016).
The whole screen tested about 45,000 compounds, of which about 65 (0.1%) were called active. The call rests on the fitted dose curve; in most records, active means well fitted activation curve with a large enough effect; inconclusive means small, poorly fitted or top-dose-only effect; inactive means no such curve, though single readings can be large or run the other way. This is one part of the list.

These compounds were tested against Galactocerebrosidase (Homo sapiens) (UniProt P54803) (assay: A Novel Cell-Based Assay to Identify Small Molecules for B -Galactocerebrosidase). Details: 145M-Twi-hGALC-G270D cells (Twitcher mouse brain line with human GALC G270D), HMU-beta-Gal fluorescence, 48 h; series mostly up to 57.5 µM; activation: at the top concentration.
Outline: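 Fluorescence readout: HMU-β-gal cleavage by mutant GALC (0.1 mM final, citrate/phosphate pH 5.2 with 1 mg/mL taurocholate), stopped with carbonate/bicarbonate plus Triton X-100. Cells: murine Twitcher 145M-Twi expressing human G270D GALC; qHTS for activators.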
Further: 0% is about no effect; nearly all actives have a fitted effect of over 65% in size.

Sequence of UniProt P54803 (P54803 whole entry, looked up): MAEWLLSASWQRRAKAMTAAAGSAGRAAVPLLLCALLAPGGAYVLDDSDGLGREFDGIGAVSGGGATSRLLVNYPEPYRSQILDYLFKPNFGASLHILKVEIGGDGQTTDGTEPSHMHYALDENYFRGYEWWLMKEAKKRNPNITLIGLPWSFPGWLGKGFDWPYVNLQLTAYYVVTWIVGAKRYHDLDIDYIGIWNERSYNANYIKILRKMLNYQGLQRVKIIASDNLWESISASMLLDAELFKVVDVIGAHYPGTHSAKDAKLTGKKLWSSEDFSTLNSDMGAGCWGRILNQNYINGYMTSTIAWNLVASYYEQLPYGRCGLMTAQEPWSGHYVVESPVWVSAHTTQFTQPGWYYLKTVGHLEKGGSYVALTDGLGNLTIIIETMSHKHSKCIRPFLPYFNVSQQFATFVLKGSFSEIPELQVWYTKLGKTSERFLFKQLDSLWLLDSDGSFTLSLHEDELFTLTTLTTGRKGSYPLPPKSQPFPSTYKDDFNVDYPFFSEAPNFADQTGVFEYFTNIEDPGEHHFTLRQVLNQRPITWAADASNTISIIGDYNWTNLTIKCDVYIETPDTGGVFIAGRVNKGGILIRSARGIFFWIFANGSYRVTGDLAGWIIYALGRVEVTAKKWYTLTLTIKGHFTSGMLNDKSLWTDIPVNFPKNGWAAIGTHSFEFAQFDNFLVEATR

activation, inactive:
CN(C)c1ccc(C(CNC(=O)c2ccc(C(C)(C)C)cc2)N2CCCC2)cc1 (stereo unspecified) -7.27%, Cc1cn2c(=O)cc(COc3ccc(NC(=O)c4ccc(C(C)(C)C)cc4)cc3)nc2s1 -14.1%, COc1ccc(CNC(=O)CCc2c(C)nn(-c3ccc(N4CCOCC4)nn3)c2C)c(OC)c1 2.11%, CCC1=C(c2ccc(C)cc2)S(=O)(=O)N=C1N1CCC(C(=O)Nc2ccccc2C(=O)OC)CC1 -12.9%, Cc1cccc(NC(=O)C2CCCN2S(=O)(=O)c2cccc3nsnc23)c1C (stereo unspecified) -10.6%, CCN(C(=O)c1sc2nc3n(c(=O)c2c1C)CCCC3)c1ccccc1F -11.7%, CC(=O)c1ccc(NC(=O)CSc2nnc3ccc(-c4ccc(F)cc4)nn23)cc1 -9.58%, Cc1ccc(CCNC(=O)c2cc(-c3ccccc3)n[nH]2)cc1 -14.1%, Cc1ccc(C)c(NC(=O)c2cnn(-c3ccc(F)cc3F)c2C2CCNCC2)c1 -8.89%, CCOC(=O)c1ccc(NC(=O)CN2C(=O)C(C)(C)c3ccccc32)cc1 -11.3%, COc1ccccc1NC(=O)CN(C)S(=O)(=O)c1cccc2cccnc12 1.52%, Cc1ccc(Nc2ccc(N3CCN(C(=O)c4cccc([N+](=O)[O-])c4)CC3)nn2)cc1 -8.93%, O=C(CSc1ncc2c(n1)-c1ccccc1N(Cc1ccc(Cl)cc1)S2(=O)=O)c1ccc(Cl)cc1 -14.6%, Cc1cccc(C)c1NC(=O)CCSc1nc(-c2ccc3c(c2)OCO3)cc(C(F)(F)F)n1 -0.235%, CCCC12CN3CC(CCC)(CN(C1)C3c1ccc(OCc3ccccc3)cc1)C2=O (stereo unspecified) -15.7%, Cc1ccccc1NC(=O)Cn1c(=O)n(CCC(=O)N2CCc3ccccc3C2)c(=O)c2ccccc21 -16.9%, Cc1ccc(CNC(=O)CN2Cc3ccccc3C2=O)cc1 -19.2%, COc1ccc(NS(=O)(=O)c2cc(-c3onc(C)c3C)ccc2C)c(OC)c1 -9.77%, CCC1CN(C(=O)N2CCC(C(=O)NCCCc3ccccc3)CC2)c2cc(C)ccc2O1 (stereo unspecified) -17.1%, Cc1cccc(NC(=O)c2cccc(N3CCCS3(=O)=O)c2)c1 -1.91%, O=C(COc1ccc(F)cc1)Nc1ccc(OCc2cc(=O)n3ccsc3n2)cc1 -2.67%, CCCc1cnc2c(c1SCC(=O)Nc1ccc([N+](=O)[O-])cc1)c(=O)n(C)c(=O)n2C -17.1%, CCOC(=O)c1ccccc1NC(=O)N(Cc1ccc(CC)cc1)Cc1cn[nH]c1-c1ccc(OC)cc1 -12.5%, Cc1ccc(Cl)cc1NC(=O)c1sc2nc(C)c(C)c(C)c2c1N -8.89%, Cc1ccc(C2CC(=O)n3nc(-c4ccc(F)cc4)nc3S2)cc1 (stereo unspecified) -16.8%, COc1ccc(NC(=O)CCS(=O)(=O)c2cc3c(cc2C)NC(=O)CO3)cc1Cl -13.4%, COc1cc(NC(=O)Cn2c(-c3ccccc3)cc(C(C)=O)c2C)cc(OC)c1 -17.8%, COC(=O)c1ccc2c(c1)sc(=NC(=O)c1ccc(S(=O)(=O)N3CCCCC3)cc1)n2C -8.53%, Cc1ccc(-c2cnc(C3CC3)o2)cc1S(=O)(=O)Nc1cccc(C#N)c1 -22.9%, COc1ccc(-n2nc(C(=O)NCCc3ccc(Cl)cc3)c3c4ccccc4n(C)c3c2=O)cc1 -10.8%, COc1ccc(C2c3c(-c4ccccc4)n[nH]c3C(=O)N2c2ccc(C(=O)O)cc2)c(OC)c1 (stereo unspecified) -9.6%, Cc1ccc(NC(=O)Cn2c(=O)n(CCC(=O)N3CCc4ccccc4C3)c(=O)c3ccccc32)c(C)c1 8.78%, OCCN(CCO)c1nc(N2CCCCC2)c2nc(N(CCO)CCO)nc(N3CCCCC3)c2n1 -8.07%, CN(Cc1ccccc1)C(=O)CSc1c2c(nc3ccc(Cl)cc13)CCCC2 -14.2%, Cc1ccc(-c2c(CN3CCN(c4cccc(C)c4C)CC3)csc2C)cc1 -8.78%, O=S(=O)(NCCS(=O)(=O)N1CCN(c2ccccc2)CC1)c1ccccc1 -31.7%, COC(=O)c1ccc(NC(=O)C(C)Sc2nc(=O)cc(N)n2CCc2ccccc2)cc1 (stereo unspecified) -1.73%, O=C(O)c1ccc(NC(=O)c2ccc(Cl)c(S(=O)(=O)N3CCCCCC3)c2)cc1 -17.3%, CN(C1CCCCC1)S(=O)(=O)c1ccc2c(c1)c(=O)c(C(=O)N1CCN(c3ccccc3)CC1)cn2C -18.4%, Cc1ccc(NC(=O)CN2C(=O)CCSc3ccccc32)c(C)c1 -2.72%, COc1ccc(CCNC(=O)c2ccc3c(c2)nc(C)n3-c2ccc(Br)cc2)cc1OC -21.7%, Cc1nc2c3ccccc3nc(NNC(=O)CCC(=O)O)n2n1 -14.8%, Cc1ccccc1NC(=O)c1cc2c([nH]c1=O)CC(C)(C)CC2=O -17.4%, Cc1ccc(Cn2c(CO)cnc2SCc2ccc(F)cc2)cc1 -32.2%, Nc1ccc(S(=O)(=O)NCc2ccccc2)cc1 -9.14%, O=C(Nc1ccc(Cl)cc1Cl)c1cc(S(=O)(=O)NCc2ccc3c(c2)OCO3)ccc1F -6.86%, CCOc1ccc(C(=O)Nc2ccc(-c3cc4ccccc4oc3=O)cc2)cc1Br -20.2%, CN(C)c1ccc(CNC(=O)C2CCN(c3nnc(-n4cccc4)s3)CC2)cc1 -21.3%, Cc1nn(CCC(=O)Nc2ccc(Cl)cc2)c(C)c1S(=O)(=O)N1CCCCC1 -35.3%, COc1ccccc1Cn1cc(C(=O)c2ccccc2)c(=O)c2cc(OC)c(OC)cc21 -11.8%, Cc1ccc(C)c(NC(=O)Nc2cc3c(cc2N2CCCCC2)n(C)c(=O)n3C)c1 -13.1%, COc1ccc(Cn2c(C(=O)O)c(CNCc3ccco3)c3ccc(C)cc32)cc1 -9.18%, CCc1cccc(NC(=O)C2CCN(S(=O)(=O)c3ccc(Br)s3)CC2)c1 -11.1%, COc1cc(OC)c(NC(=O)C2=C(C)C(=O)OC23CCN(C(C)=O)CC3)cc1Cl -0.603%, CC1CC(OC(=O)c2ccccc2O)CC(C)(C)C1 (stereo unspecified) -13.7%, O=C(NCc1ccccc1)c1cccn1-c1nnc(N2CCCCC2)s1 -5.46%, Cc1ccc(-n2ncc3c(=O)n(Cc4cccc(Cl)c4)cnc32)cc1C -16.1%, Cc1ccc(CSc2nc3cccnc3n2Cc2ccc(C(=O)NC3CC3)cc2)cc1 0.846%, Cn1c(NCc2cccc(Cl)c2)nc2ccccc21 -9.24%, CCCn1c2ccccc2c2cnn(CC(=O)NCCc3ccc(S(N)(=O)=O)cc3)c(=O)c21 -0.0922%, COCCNC(=O)CSc1c(C)cnc2c1c(=O)n(C)c(=O)n2C -15.6%, COc1ccc(NC(=O)CCCOc2cc(=O)n(C)c3ccccc23)c(OC)c1 -12.1%, Cc1ccc(NC(=O)Cn2cnc3c(oc4ccccc43)c2=O)cc1Cl -5.77%, Brc1cccc(-c2nnn3c2nc(NC2CCCCC2)c2ccccc23)c1 -7.7%, Cc1ccc(-n2c(=O)c3ccc(C(=O)NCc4ccco4)cc3n(Cc3ccccc3Cl)c2=O)cc1 -15.6%, COc1ccccc1C(=O)Nc1nnc(SCc2cc(=O)c3ccccc3[nH]2)s1 -9.8%, C=Cc1ccc(CN2C(=O)N(c3ccc(C)c(C)c3)S(=O)(=O)c3ccccc32)cc1 0.496%, CCOc1ccc(NC(=O)c2cc3cc4ccc(C)cc4nc3o2)cc1 -13.5%, Cc1cccc(C)c1Nc1sc(C(=O)c2ccccc2)c(N)c1S(=O)(=O)c1ccccc1 -8.87%, COc1ccc2nc3sc(C(=O)NCCc4ccc(Cl)cc4)cc3cc2c1 -11.5%, CC1CCCCN1CCNC(=O)c1ccc(Cn2c(SCc3ccccc3)nc3cccnc32)cc1 (stereo unspecified) -16.1%, CCS(=O)(=O)c1ncc(Cl)c(C(=O)Nc2ccc(S(=O)(=O)N(C)c3ccccc3)cc2)n1 -52.4%, Cc1nn(-c2ccc(N3CCOCC3)nn2)c(C)c1CCC(=O)NCc1ccc(Cl)cc1 3.63%, CCC(C)n1c(SCC(=O)Nc2ccccc2C(=O)OC)nc2ccsc2c1=O (stereo unspecified) 3.52%, O=C(NCc1c(-n2cccc2)sc2c1CCCC2)Nc1cccc(C(F)(F)F)c1 -8.92%, Cc1cc(Nc2ccccc2C)c2cccc(C)c2n1 -7.22%, COc1cccc(CNC(=O)c2cccc(N3CCCS3(=O)=O)c2)c1 -7.06%, COCCCNC(=O)CCCn1c(SCC(=O)c2ccc(Br)cc2)nc2c(sc3ccccc32)c1=O -9.98%, Cc1ccc(C(=O)NCC(c2ccc(Cl)cc2)N2CCCCC2)cc1 (stereo unspecified) -10.2%, CCc1ccc(NC(=O)C2CCCN(S(=O)(=O)c3ccc4c(c3)oc(=O)n4C)C2)cc1 (stereo unspecified) -9.98%, CCOc1ccc(C(=O)N2CC(=O)Nc3ccc(C)cc3C2c2ccc(F)cc2)cc1OCC (stereo unspecified) -1.69%, Cc1cc2oc(C(=O)N(Cc3ccc(Cl)cc3)Cc3ccco3)c(C)c2cc1Cl -8.61%, Cc1cc(C)c(NC(=O)c2cc(C)nc3c2c(C)nn3-c2cccc(F)c2)c(C)c1 -12.6%, CCc1ccc(-c2nn(-c3ccc(OC)cc3)c3c2cnc2ccc(OC)cc23)cc1 -24.3%, CCN(CC)C(=O)c1c(NC(=O)c2ccccc2F)sc2c1CCC(C(C)(C)C)C2 (stereo unspecified) -15.4%, CC(C)(C)OC(=O)N1CCC(c2c(C(=O)N3CCCCC3)cnn2-c2ccc(F)cc2)CC1 -10.2%, COc1cccc(NC(=O)c2oc3ccc(S(=O)(=O)N(C)C4CCCCC4)cc3c2C)c1 1.02%, Cc1ccc(C)c(NC(=O)CSc2nc3ccccc3nc2N2CCOCC2)c1 -10.2%, CCSc1ccccc1C(=O)N1CCN(c2nc3ccccc3s2)CC1 -10.4%, COc1ccccc1C(=O)Nc1cccc(OCc2cc(=O)n3ccccc3n2)c1 -0.875%, COC(=O)c1ccc(NC(=O)c2cnn(-c3ccc(Cl)cc3)c2C2CCN(C(=O)OC(C)(C)C)CC2)cc1 10.6%, CCC1CCCCN1CCCNC(=O)c1cn(C)c2ccc(S(=O)(=O)N(C)C3CCCCC3)cc2c1=O (stereo unspecified) -10.5%, O=C1CC(c2ccc(Cl)cc2)CC(=O)N1 -16.9%, COc1cccc(N2CCN(C(=O)c3cccn3-c3nnc(N4CCCCC4)s3)CC2)c1 -18.6%, O=C(CSc1nccn1Cc1ccc2c(c1)OCO2)Nc1ccccc1F -14.3%, COc1cc(NC(=O)CCn2nc(C)cc2C)cc(OC)c1OC 0.94%
